Over roughly 33,000 sequences, “E-score (dimensionless, -0.5 to 0.5)” has its median near -0.058; the highest 2% begin near 0.35. This is one part of the list.
test system: MvaT; assay: PBM 8-mer E-score (mean of HK and ME arrays) (E-score (dimensionless, -0.5 to 0.5)); higher = stronger relative binding preference; most listed sequences are background and not binding sites
How it was run: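 Reported values are rank-based E-scores, taken as the mean of two universal arrays and parsed with a custom script. Each 8-mer score falls between -0.5 and 0.5. The arrays, ME and HK, were double-stranded 60-mers with a constant 25-mer primer region and a variable 35-mer region covering all 8-mers. They were probed, by an earlier protocol, with full-length P. aeruginosa MvaT carrying an N-terminal glutathione S-transferase fusion.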

Sequence	PBM 8-mer E-score
TAATTCGA	0.173
ATACTTAA	0.241
CAGTTTAA	0.26
ACCTGGGA	-0.206
CAGGGGCC	-0.312
ACTCGAGA	-0.0399
GCGGGCAC	-0.152
CTATAAGA	0.188
GCCCTTAC	-0.162
ACCACCAG	-0.174
TCGAAACA	0.057
CTTCCAGC	-0.0945
CTCCTCAG	-0.338
TCCGTCGA	-0.064
GTCATCGA	-0.192
CGGAGGTA	-0.185
ATGCTTTA	0.0222
TCCTGCGA	-0.167
GGCGCGCA	-0.19
CTTGTAAC	0.212
AGGTTACG	-0.0371
CTCGAGTA	-0.0253
AGAGGTCG	-0.187
AGCTTTTC	-0.0371
TGGATTAA	0.269

Sequence	PBM 8-mer E-score
GTGCTAAC	0.0349
AATTTACC	0.281
CTCCCGTA	-0.141
AGCCGAAA	0.0588
CGCTGACA	0.0257
GGCTTGCA	-0.0802
CGTGCCTC	-0.298
GAACTGAA	0.063
TAAGGACA	0.0183
GCACTTAC	-0.106
AGTCCGGC	-0.271
ATCATATA	0.338
CCACAATC	-0.0349
CTCCTATA	0.0431
ACAATGCT	0.0122
CTGACACC	-0.173
ACGGACCA	-0.1
ACATAGAG	-0.0508
CAGGAAGA	-0.0498
ACGTCTGA	-0.195
AATCGACT	0.0325
CAATAGCC	-0.065
CTAGGAGC	-0.0698
CAAAGAGG	-0.125
GATTCATA	0.179

Sequence	PBM 8-mer E-score
GACACGAC	-0.117
CCTCGCTC	-0.168
TGGTTCAA	-0.00264
ACGTGACT	-0.0198
CCTAGCAA	-0.102
ATGTGGGG	-0.112
AGCTGTAG	-0.313
CGACCGCA	-0.153
AATGACTA	0.149
AAGATGAT	0.0126
ACTATAAG	0.273
GAGGTGGC	-0.275
GCCCCCAA	-0.341
ACATTGGT	0.0399
GGTAGAAC	0.0123
ATACGTGC	0.0896
AACTACCC	0.145
CACAGGTG	-0.221
CTGCCCAA	-0.103
GTTGACAA	-0.00184
AGATTTAA	0.273
AAGGTAGA	-0.00218
CTAAGGCA	-0.0863
ACACGCGC	-0.0849
AATCGTAG	-0.0133

Sequence	PBM 8-mer E-score
CGTCCCAC	-0.209
CCGCACAA	-0.0359
ATGCACCG	-0.0477
AAAGAATT	0.23
CTCGAATA	0.253
GAGTTGCA	0.0186
AGCAACAC	-0.0627
GGTCCACC	-0.272
CAGGGTAG	-0.255
AGTCTACG	-0.11
AGCTATCA	-0.0749
GTCCAGAC	-0.116
AACGGTAA	0.0797
ACTCCCGA	0.0201
GTAGGGTA	-0.108
GAAAGAAA	0.245
GCTACTGA	-0.203
CAGTGACC	-0.18
CCTGCAAA	-0.0388
CTAGTCAC	0.0469
CCGGGCTA	-0.193
GTAAGCAC	-0.085
TACAAGAA	0.121
ACTACACC	0.154
AGGTCTCC	-0.283

Sequence	PBM 8-mer E-score
CAATAGAA	0.142
CTCTCTAA	-0.00493
ATCTCCTA	-0.128
CTGAGCCC	-0.295
GTGGCAAA	-0.0252
ATGGGGGG	-0.279
ACGTGCAC	-0.161
GCCTGAGC	-0.284
ACTACGGG	-0.131
AGGAACGC	-0.195
GAGCATTA	0.105
CTTTCGGA	-0.0214
ATCCCAAT	0.00434
AGAGCGCA	-0.139
AACTCGAC	-0.0729
AGTGCCTA	-0.197
ACTGCGAG	-0.0652
AATTTGGG	0.086
AAGAGGGT	-0.231
AGTCAATC	-0.0872
CGGGACGC	-0.276
AAGAGCTC	-0.244
CTAGCATC	-0.0697
ACAACTGT	-0.0333
AAGTGCAG	0.0681

Sequence	PBM 8-mer E-score
CACCTAGG	-0.222
ACCCGATC	-0.307
ACGCTCCG	-0.182
GATCTTAA	0.186
AGGCTTCG	-0.322
GCACGCGC	-0.000524
ACGAGATC	-0.0867
AGACTGAC	-0.123
CTTGCCTA	-0.131
ACTGGGCT	-0.163
AGTAATTG	0.293
GTTAAGGA	0.0214
CACCGGCA	-0.177
CTGCGTCA	-0.311
AGTTCGTC	0.0584
ATTGCCTA	-0.0142
CGCGTCCC	-0.132
ATGTATAG	0.266
AGCCCTCC	-0.35
CGAGGCGA	-0.187
AATACACG	0.159
AGGCGGAC	-0.132
CGACATGC	-0.207
AGTTACGA	0.115
AACTTTAG	0.211

Sequence	PBM 8-mer E-score
CTCTCTTC	-0.237
AAGCTCAA	-0.0505
GCTGAAGC	-0.298
GATATTAA	0.438
AGCGAGCG	-0.127
GATCTTAC	0.0884
GACACGTC	-0.221
CTTCAAGA	-0.13
CCGGTATC	-0.0153
AACGCAGG	-0.174
CGTTGGAC	-0.225
AAAGAAGA	0.0122
ACGGTGGC	-0.15
CAAATGGC	-0.0047
ACGATGAA	-0.0301
ACCCGGTG	-0.246
ATTGTCCC	0.108
GATAACCC	-0.0706
CGACGAAA	0.0336
CGGTCTGC	-0.102
AATTCCAT	0.174
GACTTGGA	-0.101
AGATGCGG	-0.159
GGCCAAAA	-0.144
CACCATAG	-0.0791

Sequence	PBM 8-mer E-score
CATAACAC	0.0791
CCAACCTA	-0.0513
CAGCTGCG	-0.167
CATGCAAA	-0.041
CATCTCAG	-0.134
ACGACACC	0.0154
AGCACTCA	-0.0297
GACATTTA	0.256
CATCATCA	-0.0293
AAGGGCGG	-0.217
CGTACACG	-0.0976
ACCGTAGA	-0.0538
AACCACCG	-0.0371
ACGCGGAA	-0.0119
CTATCGAA	0.0668
GTACTTCA	0.0862
CCGCATGA	-0.171
CCCCGTCC	-0.258
AAGCCGCG	-0.235
CAGCCAGG	-0.245
ACGCCATA	0.0535
CCTCTAGC	-0.191
CATGACAA	-0.0668
GAGAATAC	-0.00408
CTAGGCCA	-0.211

Sequence	PBM 8-mer E-score
TCTTGAAA	-0.0285
CTTTGTAC	0.0969
ATACCCAT	0.212
AACACGTG	-0.0185
ACTGCCAG	-0.138
GGTCTTAA	-0.0948
TGACTTAA	0.185
ACACAAGC	-0.0709
CATCCTAA	-0.091
ACACTACT	0.139
CGAATCCC	-0.0846
AAATTCAA	0.226
CTGAGGAA	0.0313
CTGCTATC	-0.0872
GGTCTTGA	-0.174
AGGGTTAA	0.0112
AAAGCCAG	-0.0944
AATTCGGG	0.0589
ACAACCCG	-0.033
GGCCGCTA	-0.25
AAAACGCA	0.108
ACATTTGC	0.0645
ACAGAATG	0.00766
AGCAAGTA	0.235
ACCTGATG	-0.126

Sequence	PBM 8-mer E-score
ATAGTATC	0.165
AATGGACC	-0.0836
ACGACACG	-0.202
GTAACCCA	0.0633
AGACTTAG	0.0243
ACGTTACG	-0.0185
TATCCCAA	0.0975
TACATTGA	0.278
TATGAGGA	-0.193
AGTTCGGC	-0.04
ACTAAGAA	0.121
AGGAACAA	-0.0365
ACGCTTAC	-0.0937
ACGAGTCC	-0.243
GGCCATAC	-0.125
GGACCAAA	-0.139
CCCACTCA	-0.0678
CCTAGTTA	0.138
CATCGTAG	-0.226
AGGTATCA	-0.121
ATCTATCC	0.0466
CATATCAC	0.15
ATTGTAGC	0.0718
GATTACTA	0.202
AAACCCCG	-0.166

Sequence	PBM 8-mer E-score
ACGAGCAT	-0.00517
CCGTACTA	-0.0352
GCGGGCTA	-0.168
CACTAGCG	-0.193
CCAGGGTA	-0.193
ATTCTCGG	-0.132
CTTTGGAC	-0.0734
CAAGCCTA	0.00415
CAAGGTCC	-0.0948
AGCTTTCG	-0.136
GCACAAGA	-0.0223
TCCCGAGA	-0.0887
GTCACCAC	-0.152
ACCAACGA	0.0612
AGGGTGTA	0.0327
AGGCTACT	-0.149
GTCGACCA	-0.117
GATTCACC	-0.0998
AGCGCACC	-0.199
ACGGTCGC	-0.1
GTCATGAA	-0.112
AATGTGAT	0.0908
CTCGTCCA	-0.307
AAGATCGA	0.0129
ATGTCGAC	0.0419

Sequence	PBM 8-mer E-score
GCCTCGCC	-0.29
AAATGAGG	0.0468
ACCTTTAA	0.252
GTATATAC	0.41
AAACTCCG	0.0101
CATTAAGC	0.0879
CTGTCATC	-0.155
TCGACGCA	0.0269
GTAGTCAA	0.0203
CGGGAACC	-0.262
AAGTGTTC	0.122
AAGTATGA	0.236
TCGTAAGA	0.0638
GTGTAACA	0.206
ATTGCTAC	0.11
AAGAGAAT	0.126
CCGAACAC	-0.171
ACAAGGTA	-0.0731
AGTTAAAA	0.37
GCCCCTAC	-0.269
GGATAGCC	-0.302
AATAGCGC	0.167
CTCCAGCA	-0.216
ATGACCAA	0.0889
CTCTGAGC	-0.201

Sequence	PBM 8-mer E-score
AAAGGACC	-0.146
AACACTCG	-0.0649
GGTCCACA	0.0192
CTGGCCCC	-0.243
CTACTGGC	-0.0919
AACCCGAT	-0.0416
CAGGGTAC	-0.17
CAGCCGGC	-0.326
CCTGACCC	-0.294
TACGGTAA	0.149
CAGCGCTA	-0.16
CTAACCAA	0.106
AGAAGGCT	-0.316
GGGAGTGA	-0.218
ATAAAGTC	0.191
AGGTTATA	0.239
CCTCGAAG	-0.127
ATACTGAT	0.1
GCTGAACA	-0.239
CCGTAGTA	-0.0648
GGCTTCAA	-0.0744
AGCTTTGA	-0.0401
CGGAAGTC	-0.138
ACCCGGCC	-0.152
AAAGAGTA	0.165

Sequence	PBM 8-mer E-score
CTTTGTGA	0.0143
CCTTCTCA	-0.16
AGGCAACG	-0.115
GATTGGTA	0.178
CCTGAAAG	-0.101
GACCACAC	-0.136
GACCCCTC	-0.284
GGCCCTAC	-0.294
GCGCGCGC	0.0499
CGCCCAAA	-0.0445
CAACCCGC	-0.00327
AACGACGC	-0.113
ACTCTCCA	-0.00357
ATCCCTTC	-0.172
GCCAGTGA	-0.318
CGCTGAAC	-0.167
AACGCCTG	-0.179
CACTTACG	0.102
CCATAAAA	0.202

— the supplement of paper PMC4466236
